Assay results as given in publication PMC5892938.
The list shows a part of the results. At the low end of the ranking the order means little.
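Also: DESeq read counts versus GST-SBP nonspecific binding control pulldown.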

The sequences below were run against GST-SBP-SLBP (stem-loop binding protein) (UniProt Q14493) (assay: targeted RNA Bind-n-Seq). Details: RBNS binding buffer: 25 mM Tris pH 7.5, 150 mM KCl, 3 mM MgCl2, 0.1% Tween, 0.5 mg/mL BSA, 1 mM DTT; 27 nM protein, 750 pM RNA pool; temperature not stated; high values mean tight binding.
Sequence “GGUCACGUCUCAAUCAACUCUUUCUCAGGAGUUUCCUCCUGUUUACUCAACAGCUCGCAGUCAAG” has a binding signal (log2 fold change) of 0.312.
With “GGUCACGUCUCAAUCAACUCAUCGCCCAGGGAAAGCCCUGGUUUAUUCAACAGCUCGCAGUCAAG” the binding signal (log2 fold change) was -0.0252.
Work on “GGUCACGUCUCAAUCAACUCUCAAGAGGGGGGGAAAACCCCUUUGCCCUCAACCUCAACAGCUCGCAGUCAAG” yielded a binding signal (log2 fold change) of -0.0326.
“GGUCACGUCUCAAUCAACUCUUCCUCCAGGGAAAGCCCUGGUUAACUCAACAGCUCGCAGUCAAG” was tested, and the binding signal (log2 fold change) was -0.0572.
“GGUCACGUCUCAAUCAACUCUUCCCCAGGAGUUUACUCCUGUUAUUUCAACAGCUCGCAGUCAAG” was tested, and the binding signal (log2 fold change) was -0.137.
“GGUCACGUCUCAAUCAACUCAAUUUCCAGGGAAAUCCCUGGUAUUUUCAACAGCUCGCAGUCAAG” showed a binding signal (log2 fold change) of 0.0919.
For “GGUCACGUCUCAAUCAACUCAAAAGAGGGGGGGAAAACCCCUUUGCCCUCAAAUUCAACAGCUCGCAGUCAAG”, the binding signal (log2 fold change) was -0.134.
For “GGUCACGUCUCAAUCAACUCUAUUCCAGGAGUUUUCUCCUGCUUUCUCAACAGCUCGCAGUCAAG”, the binding signal (log2 fold change) was -0.109.
“GGUCACGUCUCAAUCAACUCUUUCUCCAGGGAAACCCCUGGCUAAUUCAACAGCUCGCAGUCAAG” was tested, and the binding signal (log2 fold change) was -0.205.
Sequence “GGUCACGUCUCAAUCAACUCCCCAGAGGGGGGGAAAACCCCUUUACCCUCAUUUUCAACAGCUCGCAGUCAAG” has a binding signal (log2 fold change) of -0.201.
With “GGUCACGUCUCAAUCAACUCAUGUCCAGGAGUUUUCUCCUGCUAUCUCAACAGCUCGCAGUCAAG” the binding signal (log2 fold change) was 0.0653.
For “GGUCACGUCUCAAUCAACUCUCCCGAGGGGGGGAAAACCCCUUUACCCUCAAAAUCAACAGCUCGCAGUCAAG”, the binding signal (log2 fold change) was -0.372.
Work on “GGUCACGUCUCAAUCAACUCAAUCCCCAGGGAAAGCCCUGGUAUAUUCAACAGCUCGCAGUCAAG” yielded a binding signal (log2 fold change) of 0.0198.
“GGUCACGUCUCAAUCAACUCUUCCCCCAGGGAAAACCCUGGUAAUCUCAACAGCUCGCAGUCAAG” gave a binding signal (log2 fold change) of 0.172.
For “GGUCACGUCUCAAUCAACUCUAUGGAGGGGGGGAAAACCCCUUUACCCUCAAAUUCAACAGCUCGCAGUCAAG”, the binding signal (log2 fold change) was -0.201.
“GGUCACGUCUCAAUCAACUCUUUCCCCAGGGAAAUCCCUGGCUUACUCAACAGCUCGCAGUCAAG” was tested, and the binding signal (log2 fold change) was -0.218.
For “GGUCACGUCUCAAUCAACUCUUUCCCAGGAGUUUUCUCCUGUUAUGUCAACAGCUCGCAGUCAAG”, the binding signal (log2 fold change) was 0.376.
Sequence “GGUCACGUCUCAAUCAACUCAACGCCAGGAGUUUGCUCCUGUAUUUUCAACAGCUCGCAGUCAAG” has a binding signal (log2 fold change) of 0.123.
“GGUCACGUCUCAAUCAACUCAAUCCCCAGGGAAAACCCUGGCUUAUUCAACAGCUCGCAGUCAAG” was tested, and the binding signal (log2 fold change) was 0.152.
For “GGUCACGUCUCAAUCAACUCUUCUUCCAGGGAAAGCCCUGGCUAAUUCAACAGCUCGCAGUCAAG”, the binding signal (log2 fold change) was -0.184.
Sequence “GGUCACGUCUCAAUCAACUCAGUCUCAGGAGUUUCCUCCUGUAUAUUCAACAGCUCGCAGUCAAG” has a binding signal (log2 fold change) of -0.0862.
Work on “GGUCACGUCUCAAUCAACUCAAUCCCAGGAGUUUACUCCUGCAAAUUCAACAGCUCGCAGUCAAG” yielded a binding signal (log2 fold change) of -0.305.
“GGUCACGUCUCAAUCAACUCAAUCCCCAGGGAAACCCCUGGUUUUUUCAACAGCUCGCAGUCAAG” showed a binding signal (log2 fold change) of 0.223.
“GGUCACGUCUCAAUCAACUCUAUAGAGGGGGGGAAAACCCCUUUGCCCUCAUCGUCAACAGCUCGCAGUCAAG” showed a binding signal (log2 fold change) of 0.131.
Sequence “GGUCACGUCUCAAUCAACUCAACUCCAGGAGUUUGCUCCUGCUAAUUCAACAGCUCGCAGUCAAG” has a binding signal (log2 fold change) of -0.0621.
Sequence “GGUCACGUCUCAAUCAACUCUUCCCCCAGGGAAACCCCUGGUUUUCUCAACAGCUCGCAGUCAAG” has a binding signal (log2 fold change) of 0.0328.
With “GGUCACGUCUCAAUCAACUCAUCCCCAGGAGUUUACUCCUGCUUUUUCAACAGCUCGCAGUCAAG” the binding signal (log2 fold change) was 0.0768.
For “GGUCACGUCUCAAUCAACUCAACUUCAGGAGUUUACUCCUGCAAUCUCAACAGCUCGCAGUCAAG”, the binding signal (log2 fold change) was 0.00286.
“GGUCACGUCUCAAUCAACUCAACUCCCAGGGAAAUCCCUGGUUAUUUCAACAGCUCGCAGUCAAG” was tested, and the binding signal (log2 fold change) was 0.0344.
Sequence “GGUCACGUCUCAAUCAACUCUCACGAGGGGGGGAAAACCCCUUUGCCCUCAAAAUCAACAGCUCGCAGUCAAG” has a binding signal (log2 fold change) of -0.427.
“GGUCACGUCUCAAUCAACUCUUUUUCCAGGGAAAACCCUGGUUUACUCAACAGCUCGCAGUCAAG” was tested, and the binding signal (log2 fold change) was -0.0858.
“GGUCACGUCUCAAUCAACUCUUUCUCAGGAGUUUCCUCCUGUUAUCUCAACAGCUCGCAGUCAAG” gave a binding signal (log2 fold change) of -0.082.
With “GGUCACGUCUCAAUCAACUCACACGAGGGGGGGAAAACCCCUUUGCCCUCACAAUCAACAGCUCGCAGUCAAG” the binding signal (log2 fold change) was 0.271.
For “GGUCACGUCUCAAUCAACUCAUCUCCAGGAGUUUCCUCCUGUAUACUCAACAGCUCGCAGUCAAG”, the binding signal (log2 fold change) was 0.117.
Work on “GGUCACGUCUCAAUCAACUCUUCCCCAGGAGUUUUCUCCUGUUUUCUCAACAGCUCGCAGUCAAG” yielded a binding signal (log2 fold change) of -0.087.
Sequence “GGUCACGUCUCAAUCAACUCAUUCCCAGGAGUUUGCUCCUGCAUAUUCAACAGCUCGCAGUCAAG” has a binding signal (log2 fold change) of 0.16.
“GGUCACGUCUCAAUCAACUCUAUCUCAGGAGUUUUCUCCUGUAUAUUCAACAGCUCGCAGUCAAG” was tested, and the binding signal (log2 fold change) was -0.0324.
